The source of these data is publication PMC4336329 (PLoS ONE, 2015).

Structures are written as SMILES. Among all 310,000 compounds or so, about 14,000 (4.5%) showed an effect of 50% or more. Effects have a minus sign here. The list shows a part of the results. Where a SMILES comes first, the peptide text is derived from it. [ ]: non-standard residue; d: D form. pGlu = O=C1CC[CH](C(=O)O)N1
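Further: peak tail current of the secondary pulse compared with the same well before compound.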

The target in the assay is human ether-à-go-go-related gene (hERG) potassium channel (human, UniProt Q12809). In words: primary screen, population patch clamp on CHO cells stably expressing hERG.
human ether-à-go-go-related gene (hERG) potassium channel, sequence (Q12809 whole entry, looked up): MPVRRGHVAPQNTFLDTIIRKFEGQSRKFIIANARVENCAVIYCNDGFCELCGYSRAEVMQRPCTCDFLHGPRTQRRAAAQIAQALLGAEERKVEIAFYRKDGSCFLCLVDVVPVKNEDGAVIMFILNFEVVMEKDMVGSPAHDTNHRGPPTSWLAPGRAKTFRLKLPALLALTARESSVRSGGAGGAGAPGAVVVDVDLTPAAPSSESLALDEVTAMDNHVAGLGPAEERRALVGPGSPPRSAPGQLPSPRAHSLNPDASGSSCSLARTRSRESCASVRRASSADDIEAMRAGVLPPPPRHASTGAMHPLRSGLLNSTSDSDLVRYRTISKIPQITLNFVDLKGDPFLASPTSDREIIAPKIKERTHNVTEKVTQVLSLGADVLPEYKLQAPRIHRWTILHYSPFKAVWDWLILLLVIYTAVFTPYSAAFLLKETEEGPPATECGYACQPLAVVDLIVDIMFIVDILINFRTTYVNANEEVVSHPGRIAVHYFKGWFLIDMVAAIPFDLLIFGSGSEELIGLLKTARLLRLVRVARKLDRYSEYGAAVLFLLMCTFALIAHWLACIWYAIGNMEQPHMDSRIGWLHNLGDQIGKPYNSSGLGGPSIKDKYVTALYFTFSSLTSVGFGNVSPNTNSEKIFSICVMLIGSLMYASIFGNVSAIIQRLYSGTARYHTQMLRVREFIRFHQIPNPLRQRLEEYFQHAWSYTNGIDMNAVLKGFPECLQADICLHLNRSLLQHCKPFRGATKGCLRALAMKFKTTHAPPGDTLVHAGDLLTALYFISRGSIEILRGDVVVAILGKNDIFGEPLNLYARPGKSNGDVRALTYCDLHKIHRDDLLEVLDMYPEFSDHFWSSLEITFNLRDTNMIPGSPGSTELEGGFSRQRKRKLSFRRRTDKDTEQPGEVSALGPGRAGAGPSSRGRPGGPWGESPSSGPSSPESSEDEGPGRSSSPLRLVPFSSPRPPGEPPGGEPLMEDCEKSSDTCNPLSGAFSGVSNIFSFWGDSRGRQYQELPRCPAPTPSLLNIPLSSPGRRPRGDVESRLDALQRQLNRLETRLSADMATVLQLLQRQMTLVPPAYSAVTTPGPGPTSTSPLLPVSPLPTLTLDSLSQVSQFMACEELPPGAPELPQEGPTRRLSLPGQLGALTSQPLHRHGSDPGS
On to `COc1ccc(CCNC(=O)CSc2nnc(CNc3ccc(Cl)cc3)o2)cc1OC`, for which the “hERG current change (%, negative = inhibition) at 10uM” value is -16.8%. To `O=C1c2ccccc2NC(c2ccccc2O)N1c1ccc(F)cc1` (stereo not shown) belongs 5.56%. Regarding `COc1ccccc1-c1nc(-c2ccc(Br)o2)no1`, the “hERG current change (%, negative = inhibition) at 10uM” value came out at 12.9%. As for `COc1ccc(N2C(=O)[C@@H]3[C@H](C2=O)[C@H]2C=CC=NN2[C@@H]3C(=O)Nc2ccc(Cl)cc2)cc1`, the figure is -32.4%; as for `CCOC(=O)c1cccc(NC(=O)c2ccc(F)cc2F)c1`, -16.1%; as for `N#CCC(=O)N/N=C/c1cn(Cc2cccc3ccccc23)c2ccccc12`, 1.77%. For the molecule `Cc1ccc2c(c1)C1CN(C)CCC1N2S(=O)(=O)c1ccc(C(C)C)cc1` (stereo not shown), the “hERG current change (%, negative = inhibition) at 10uM” value is on record as -73.4%. As for `Oc1c(C(c2ccccn2)N2CCCCC2)cc(Cl)c2cccnc12` (stereo not shown), the “hERG current change (%, negative = inhibition) at 10uM” value is -9.95%. As for `O=C(Nc1ccccn1)c1ccc2nc(-c3ccccc3)c(-c3ccccc3)nc2c1`, the figure is 6.84%. On to `O=C(Oc1ccc(Br)cc1C(=S)N1CCCCC1)c1cc([N+](=O)[O-])cc([N+](=O)[O-])c1`, for which the “hERG current change (%, negative = inhibition) at 10uM” value is 15%. Consider `Cc1nc(-c2ccc(-c3ccon3)s2)no1`, for which the “hERG current change (%, negative = inhibition) at 10uM” value turned out to be 15.1%. As for `C=CCOc1ccc(/C=C/C(=O)Nc2ccc(C(=O)NC)cc2)cc1`, the figure is -8.15%; as for `CCN(CC(=O)Nc1c(F)cccc1F)C(=O)C1CCN(S(=O)(=O)c2ccc(C)c(C)c2)CC1`, -1.77%. For the molecule `Cc1ccccc1Cn1c2ccccc2c2cnn(CC(=O)NCCCN3CCN(C)CC3)c(=O)c21`, the “hERG current change (%, negative = inhibition) at 10uM” value is recorded as -3.23%. As for `CCC(C)C(NC(=O)C(CC(C)C)NC(=O)C(CO)NC(=O)C1CCC(=O)N1)C(=O)OC` (stereo not shown) ([pGlu]SLI-OMe; configuration not given here), the figure is 5.46%; as for `COc1ccc(CC(C)NS(=O)(=O)c2ccc3c(c2)CCN3S(C)(=O)=O)cc1OC` (stereo not shown), -23.4%; as for `CC(/C=C/c1ccco1)=N\NC(=O)CNc1ccc2ccccc2c1`, 1.9%. `CCc1ccc(N2CC(C(=O)N/N=C/c3cc([N+](=O)[O-])ccc3O)CC2=O)cc1` (stereo not shown): the “hERG current change (%, negative = inhibition) at 10uM” value is -28.7%. As for `COc1cc(NC(=O)C2CC2)c(OC)cc1NC(=O)c1ccco1`, the figure is 13.1%; as for `O=S(=O)(Nc1cccc2ccccc12)c1ccccc1F`, 16.5%. As for `Cn1c(=O)c2c(nc(N3CCCCCC3)n2CC(=O)c2ccc(Br)cc2)n(C)c1=O`, the figure is 2.9%; as for `C=CCn1c(C)cc(C(=O)COC(=O)CNC(=O)c2ccccc2)c1C`, -1.25%.
